Test results: PubChem BioAssay (NCI)
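Dose response: 5 concentrations. Exposure: 48 h. Format: 96-well plates. Endpoint: linear interpolation; highest concentration if not reached. TGI: total growth inhibition.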

Assays:
Assay in all cases: NCI anticancer screen, dose series, 48 h
LOX IMVI melanoma = system: LOX IMVI melanoma
SK-MEL-28 melanoma = system: SK-MEL-28 melanoma
A498 renal = system: A498 renal
UACC-257 melanoma = system: UACC-257 melanoma
786-0 renal = system: 786-0 renal
NCI-H226 lung = system: NCI-H226 lung
TK-10 renal = system: TK-10 renal
BT-549 breast = system: BT-549 breast
HCT-15 colon = system: HCT-15 colon
MALME-3M melanoma = system: MALME-3M melanoma
K-562 leukemia = system: K-562 leukemia
HS 578T breast = system: HS 578T breast
MOLT-4 leukemia = system: MOLT-4 leukemia
PC-3 prostate = system: PC-3 prostate
ACHN renal = system: ACHN renal
OVCAR-5 ovarian = system: OVCAR-5 ovarian
NCI-H460 lung = system: NCI-H460 lung
MCF7 breast = system: MCF7 breast
NCI-H522 lung = system: NCI-H522 lung
SN12C renal = system: SN12C renal
SNB-19 CNS = system: SNB-19 CNS
SR leukemia = system: SR leukemia
A549 NSCLC = system: A549 NSCLC
DU-145 prostate = system: DU-145 prostate
U251 CNS = system: U251 CNS
OVCAR-3 ovarian = system: OVCAR-3 ovarian
UACC-62 melanoma = system: UACC-62 melanoma
EKVX NSCLC = system: EKVX NSCLC
MDA-MB-435 = system: MDA-MB-435
SNB-75 CNS = system: SNB-75 CNS
OVCAR-4 ovarian = system: OVCAR-4 ovarian
SF-539 CNS = system: SF-539 CNS
M14 melanoma = system: M14 melanoma
KM12 colon = system: KM12 colon
UO-31 renal = system: UO-31 renal
NCI/ADR-RES ovarian = system: NCI/ADR-RES ovarian
MDA-MB-231 breast = system: MDA-MB-231 breast
HOP-62 NSCLC = system: HOP-62 NSCLC
CCRF-CEM leukemia = system: CCRF-CEM leukemia
SW-620 colon = system: SW-620 colon
NCI-H23 lung = system: NCI-H23 lung
OVCAR-8 ovarian = system: OVCAR-8 ovarian
HCT-116 colon = system: HCT-116 colon
RPMI-8226 leukemia = system: RPMI-8226 leukemia
SF-295 CNS = system: SF-295 CNS
SF-268 CNS = system: SF-268 CNS
IGROV1 ovarian = system: IGROV1 ovarian
T-47D breast = system: T-47D breast
CAKI-1 renal = system: CAKI-1 renal
SK-MEL-2 melanoma = system: SK-MEL-2 melanoma
HL-60(TB) leukemia = system: HL-60(TB) leukemia
RXF 393 renal = system: RXF 393 renal
SK-OV-3 ovarian = system: SK-OV-3 ovarian
MDA-N = system: MDA-N
HT29 colon = system: HT29 colon
SK-MEL-5 melanoma = system: SK-MEL-5 melanoma

COc1cc2c(cc1OC)-c1[nH]c3ccc(C(F)(F)F)cc3c1CC(=O)N2
TGI (LOX IMVI melanoma): > 100 µM | TGI (SK-MEL-28 melanoma): > 100 µM | TGI (A498 renal): 27.7 µM | TGI (UACC-257 melanoma): > 100 µM | TGI (786-0 renal): 20.2 µM | TGI (NCI-H226 lung): 8.7 µM | TGI (TK-10 renal): > 100 µM | TGI (BT-549 breast): > 100 µM | TGI (HCT-15 colon): > 100 µM | TGI (MALME-3M melanoma): > 100 µM | TGI (K-562 leukemia): > 100 µM | TGI (HS 578T breast): > 100 µM | TGI (MOLT-4 leukemia): 6.19 µM | TGI (PC-3 prostate): > 100 µM | TGI (ACHN renal): > 100 µM | TGI (OVCAR-5 ovarian): > 100 µM | TGI (NCI-H460 lung): > 100 µM | TGI (MCF7 breast): > 100 µM | TGI (NCI-H522 lung): > 100 µM | TGI (SN12C renal): > 100 µM | TGI (SNB-19 CNS): > 100 µM | TGI (SR leukemia): 6.2 µM | TGI (A549 NSCLC): 26.1 µM | TGI (DU-145 prostate): > 100 µM | TGI (U251 CNS): > 100 µM | TGI (OVCAR-3 ovarian): 6.4 µM | TGI (UACC-62 melanoma): > 100 µM | TGI (EKVX NSCLC): > 100 µM | TGI (MDA-MB-435): > 100 µM | TGI (SNB-75 CNS): > 100 µM | TGI (OVCAR-4 ovarian): > 100 µM | TGI (SF-539 CNS): > 100 µM | TGI (M14 melanoma): > 100 µM | TGI (KM12 colon): > 100 µM | TGI (UO-31 renal): > 100 µM | TGI (NCI/ADR-RES ovarian): > 100 µM | TGI (MDA-MB-231 breast): > 100 µM | TGI (HOP-62 NSCLC): > 100 µM | TGI (CCRF-CEM leukemia): > 100 µM | TGI (SW-620 colon): > 100 µM | TGI (NCI-H23 lung): > 100 µM | TGI (OVCAR-8 ovarian): > 100 µM | TGI (HCT-116 colon): 3.12 µM | TGI (RPMI-8226 leukemia): 6.28 µM | TGI (SF-295 CNS): > 100 µM | TGI (SF-268 CNS): > 100 µM | TGI (IGROV1 ovarian): > 100 µM | TGI (T-47D breast): > 100 µM | TGI (CAKI-1 renal): > 100 µM | TGI (SK-MEL-2 melanoma): > 100 µM | TGI (HL-60(TB) leukemia): 96.7 µM | TGI (RXF 393 renal): 4.01 µM | TGI (SK-OV-3 ovarian): > 100 µM | TGI (MDA-N): > 100 µM | TGI (HT29 colon): > 100 µM | TGI (SK-MEL-5 melanoma): > 100 µM
